Screen size: about 150,000 compounds; about 540 (0.36%) showed an effect of 50% or more. This is one part of the list.

The test system of this test is Plasmodium falciparum. Briefly: Primary screen in NF54 nanoGlo assay, in single point, at 2uM, 72h; a lower Z score goes with more inhibition. The class given is functional, Erythrocyte. Conditions: timepoint 72 hour.
Consider `C=CCc1cc(CN(C)CC2(C)COC2)ccc1OC(C)C`, for which the “% Inhibition” value was -3% and the Z score came out at 0.58.
For `CC(=O)N1CCC(C(=O)Nc2ccsc2-c2nc(-c3cccc(C)c3)no2)CC1`, in that order: -16% and 1.57.
For the compound `CN1CCC(Nc2ncnc3sccc23)CC1`, the “% Inhibition” value was 2% and the Z score is recorded as -0.35.
As for `CC1(C)CN(C(=O)C2COc3ccccc32)CC[S+]1[O-]` (stereo not drawn), the “% Inhibition” value is listed as -10% and the Z score turned out to be 1.37.
The matching figures for `CCc1ccc(COc2cc(-n3c(=O)cc(C(F)(F)F)n(C)c3=O)ccc2OC)c(O[C@@H](C)C(=O)OC)c1`: -50% and 5.85.
For `COc1ccc(OC)c(CNC(=O)c2nc(Cn3nc(-c4ccc(C)cc4)ccc3=O)no2)c1`, in that order: -7% and 0.89.
As for `CN(C)S(=O)(=O)N1CCN(c2cccc(OCc3ccccc3Cl)c2)CC1`, the “% Inhibition” value stood at 0% and the Z score turned out to be 0.
For `Cc1cccc(NC(=O)N2CCN(CCn3cnc4cccnc43)CC2)c1C`, in that order: -12% and 1.59.
As to `CC#CCN1C(=O)N[C@@](CCc2ccccc2)(C2CCN(C(=O)c3n[nH]c4c3CCC4)CC2)C1=O`, the “% Inhibition” value is listed as -5% and the Z score worked out at 0.96.
Consider `CO[C@H]1CN(c2cccc(F)c2)C12CCN(C(=O)c1ccc(C)s1)CC2`, for which the “% Inhibition” value is -13% and the Z score is listed as 1.67.
The matching figures for `Cc1cc(F)ccc1-n1ccc(C(=O)N2CCCNC(=O)[C@@H]2C)n1`: -12% and 1.36.
Turning to `O=C1CO[C@H]2CN(Cc3ccccc3)C[C@H]2N1Cc1cccc(C(F)(F)F)c1`, the “% Inhibition” value is listed as -4% and the Z score is 0.59.
As to `O=C(NCCc1c[nH]c2cc(F)c(Cl)cc12)[C@H]1CCCC(F)(F)C1`, the “% Inhibition” value is 1% and the Z score is -0.2.
Regarding `CC1(C)CN(C(=O)Cn2cc(NC(=O)c3occ4c3CCOC4)cn2)CCO1`, the “% Inhibition” value was found to be 5% and the Z score is given as -0.82.
Take `Cn1c(CN2CCCCC2)nnc1C1CCN(c2ncc(F)cn2)CC1`: the “% Inhibition” value amounted to 2% and the Z score is recorded as -0.28.
In the case of `CCOC(=O)[C@H](C)n1cnc2c1c(=O)n(CC1CC1)c(=O)n2-c1cccc(OC)c1`, the “% Inhibition” value is -9% and the Z score worked out at 1.34.
Turning to `Cc1ccc2oc(CN(C(=O)c3ccc(Cl)c(Cl)c3)C3CCCCC3)nc2c1`, the “% Inhibition” value was -5% and the Z score turned out to be 0.89.
For `Cc1cc(C#N)nc(N[C@@H](C)c2nc[nH]n2)n1`, in that order: -3% and 0.52.
The matching figures for `Cc1ccccc1C(C)NCCCOC1CCOC1` (stereo not drawn): -22% and 2.18.
As for `CCOC(=O)Nc1ccc(NCc2cnc(C)s2)cc1C#N`, the “% Inhibition” value came out at 2% and the Z score is recorded as -0.33.
The matching figures for `Cc1ccccc1C(=O)N1CCc2nc(N3CCOCC3)nc(N3CCN(C)CC3)c2C1`: -3% and 0.46.
Consider `Cn1ccnc1[C@@H]1CCCN1S(=O)(=O)c1c2c(nn1C)CCCC2`, for which the “% Inhibition” value came to 36% and the Z score was -1.42.
Consider `CC[C@H]1CCCCN1Cc1ccc(CNC(=O)c2c(C)oc3ncn(CC(C)C)c(=O)c23)o1`, for which the “% Inhibition” value is listed as -4% and the Z score amounted to 0.71.
In the case of `Cn1c(=O)c2c(ncn2CC(=O)N2CCCn3nc(-c4cccc(F)c4)cc3C2)n(C)c1=O`, the “% Inhibition” value was -14% and the Z score is on record as 1.22.
Consider `CCc1nc(-c2csc(S(=O)(=O)N3CCC[C@H](C(=O)Nc4ccc(C)cc4Cl)C3)c2)no1`, for which the “% Inhibition” value is listed as -1% and the Z score is 0.1.
Consider `Cc1ccc(CN2CC[C@H](CNC(=O)c3cc(N)ccn3)C2)cc1C`, for which the “% Inhibition” value stood at 1% and the Z score is reported as -0.15.
Turning to `CO[C@@H](CNC(=O)N1CCc2c(F)cc(F)cc21)c1ccccc1`, the “% Inhibition” value is -1% and the Z score is on record as 0.08.
For the compound `CCCn1c(C)cnc1C1CN(S(=O)(=O)c2cc(Cl)ccc2Cl)C1`, the “% Inhibition” value is on record as 30% and the Z score is reported as -4.02.
The matching figures for `N[C@@H](CC(=O)O)c1ccc(C(F)(F)F)cc1`: 0% and -0.07.
In the case of `Cc1ccnc2nc(C(=O)N(CCc3cccc(F)c3)C3CC3)nn12`, the “% Inhibition” value is -5% and the Z score came to 0.53.
Take `COc1ccccc1CCn1c(C)cc(=O)c(C(=O)N2CCN(c3cccc(Cl)c3)CC2)c1C`: the “% Inhibition” value is on record as -8% and the Z score is 1.11.
Regarding `C=CCCC(=O)N1CCCCC1C1CCCN(C(=O)C(F)(F)F)C1` (stereo not drawn), the “% Inhibition” value is recorded as 0% and the Z score is reported as 0.01.
Take `CCc1onc(C)c1NC(=O)N(C)C1CCC1`: the “% Inhibition” value is listed as -17% and the Z score worked out at 2.53.
Regarding `N#CC1COCCN1C(=O)C1CC2CCC1O2` (stereo not drawn), the “% Inhibition” value is on record as -4% and the Z score was found to be 0.62.
Turning to `CN1CCN(C[C@@H]2CN(C(=O)c3cc4c(s3)CCCC4)C[C@@H]2CO)CC1`, the “% Inhibition” value is -14% and the Z score is 1.48.
Consider `O=C(N[C@@H]1C[C@H]1c1cccc(Cl)c1)c1cc[nH]n1`, for which the “% Inhibition” value is on record as -11% and the Z score came out at 1.76.
In the case of `Fc1c(F)c(F)c2c(c(-c3ccccc3)nn2-c2ccccc2)c1F`, the “% Inhibition” value is on record as -10% and the Z score was found to be 1.85.
As to `COc1ccc(CNC(=O)c2ccc3[nH]c4c(c3c2)CN(C(C)=O)CC4)c(OC)c1`, the “% Inhibition” value was found to be 17% and the Z score is listed as -2.56.
For `CC[C@H]1c2cccn2CCN1C(=O)c1conc1C(F)(F)F`, the “% Inhibition” value is 0% and the Z score is reported as -0.04.
Consider `CC[C@@H](C#N)Oc1cc(CN)ccc1OC`, for which the “% Inhibition” value is reported as -6% and the Z score was 0.97.
For `CCN1C(=O)[C@@H]2CC3(CCN(Cc4ccc(F)cc4F)CC3)CN2C1=O`, the “% Inhibition” value is given as 2% and the Z score was -0.25.
On to `Cc1oc2ncn(CCC(=O)N3CCCCCC3)c(=O)c2c1C`, for which the “% Inhibition” value is -16% and the Z score was found to be 1.9.
As for `Cc1c(NCc2nc(CC(C)C)no2)cccc1N1CCOC1=O`, the “% Inhibition” value turned out to be 2% and the Z score was -0.2.
As to `COc1ccccc1-c1ccc(C(=O)NC2CCOCC2)nc1`, the “% Inhibition” value is listed as -10% and the Z score is reported as 1.97.
`COCCN(C)Cc1nc(C2(c3ccccc3)CC2)n[nH]1`: the “% Inhibition” value is -9% and the Z score is recorded as 1.51.
Turning to `Cc1ccc2[nH]cc(CCC(=O)N3CCOC[C@H]3C3CCC3)c2c1`, the “% Inhibition” value is -8% and the Z score was determined as 1.57.
For `O=C([C@H]1CCCN(c2nc3ccccc3[nH]2)C1)N1CCN(c2ccccc2)CC1`, in that order: -8% and 1.06.
Regarding `Cc1ccc2c(c1)C(=O)N(CC(=O)Nc1cnccc1C)C2=O`, the “% Inhibition” value is reported as -8% and the Z score was found to be 1.34.
Take `O=C1OCCN1Cc1nc(-c2ccco2)nn1Cc1ccc2c(c1)OCO2`: the “% Inhibition” value is -4% and the Z score stood at 0.7.
On to `CC(O)CC1COCCN1C(=O)NCCC1CCCC1` (stereo not drawn), for which the “% Inhibition” value came out at 8% and the Z score was -0.82.
For the compound `CN(CC1(C)CCOCC1)C(=O)CCC1CCCC1`, the “% Inhibition” value is 0% and the Z score is on record as 0.07.
`CC(C)(C)C1CNC(=O)C1C(=O)NCc1ccccn1` (stereo not drawn): the “% Inhibition” value was -3% and the Z score was 0.52.
`c1ccc(CN2CCN(Cc3cc(C4CC4)n[nH]3)CC2)cc1`: the “% Inhibition” value is recorded as -2% and the Z score is 0.34.
As for `CCN(C[C@H]1COc2ccccc2O1)C(=O)c1cc2n(n1)CCO2`, the “% Inhibition” value was -3% and the Z score amounted to 0.45.
In the case of `CC1OCCC1C(=O)NC(C)(C)C1CCN(C(=O)C2CCOC2C)CC1` (stereo not drawn), the “% Inhibition” value amounted to 4% and the Z score is -0.83.
Consider `C[C@H]1CN(C(=O)Cn2cc(C(F)(F)F)ccc2=O)CCO1`, for which the “% Inhibition” value is -8% and the Z score was 1.45.
`N#Cc1ccc(S(=O)(=O)N(CC(F)(F)F)c2ccncc2)cn1`: the “% Inhibition” value is given as 30% and the Z score is on record as -3.34.
As for `CCn1cc(S(=O)(=O)NCC2CCCCC2)cn1`, the “% Inhibition” value is listed as -7% and the Z score amounted to 0.98.
In the case of `O=C(O)c1ccc(CC(=O)N(C2CC2)[C@H]2CCc3ccccc32)cc1`, the “% Inhibition” value is listed as -15% and the Z score is 1.53.
With `CC(C)C[C@H](NC(=O)C(C)(C)C)C(=O)N(C)CCc1nccs1`, the “% Inhibition” value is on record as -2% and the Z score is reported as 0.25.
In the case of `O=C(O)[C@H]1CN(C(=O)C2CCCC2)C[C@@H]1c1ccc2c(c1)OCO2`, the “% Inhibition” value is -12% and the Z score came to 2.34.
In the case of `CCCc1nnc(NCCc2c[nH]c3ccccc23)o1`, the “% Inhibition” value came out at 2% and the Z score is on record as -0.29.
Regarding `O=C(Nc1cnccc1-n1ccnc1)c1cc(F)ccc1F`, the “% Inhibition” value was -8% and the Z score is 1.02.
For the compound `Cc1cnc(CC2CCN(C(=O)NC(C)C)CC2)n1Cc1ccc(F)cc1`, the “% Inhibition” value is on record as -3% and the Z score is 0.39.
Take `CCc1ccc(S(=O)(=O)NC(c2cncc(OC)c2)[C@H]2C[C@H](O)C2)s1` (stereo partly drawn): the “% Inhibition” value is listed as -16% and the Z score is 1.96.
For the compound `CCOCCC1(Cn2nnnc2N2CC(CC)OC(CC)C2)CC1` (stereo not drawn), the “% Inhibition” value is on record as -1% and the Z score is 0.11.
As to `Cc1cnc(C)c(-c2cccc(C(=O)NCCN3CCCOC3=O)c2)n1`, the “% Inhibition” value is given as -19% and the Z score is 2.05.
In the case of `O=C(c1ccsc1)N1CCN(c2cc(-n3cncn3)ncn2)CC1`, the “% Inhibition” value is on record as -13% and the Z score was 2.09.
On to `O=C(C1CCN(c2ncnc3c2Cc2ccccc2OC3)CC1)N1CCCC1`, for which the “% Inhibition” value is -2% and the Z score stood at 0.38.
Turning to `Cc1nc2c(s1)CCC[C@@H]2NC(=O)CN1CC(=O)NC1=O`, the “% Inhibition” value was -13% and the Z score is 2.17.
For `COC[C@H]1CCN(Cc2ccc3c(c2)OCCO3)C1`, the “% Inhibition” value worked out at 6% and the Z score is reported as -0.79.
As to `COc1cc2ccc3c(CCN(C)C(=O)c4cc(OC)c5c(c4)OCCCO5)cc(OC)c(OC)c3c2cc1OC`, the “% Inhibition” value turned out to be 7% and the Z score was -0.9.
On to `Cc1cc(S(=O)(=O)N(C)CC#N)c(C)s1`, for which the “% Inhibition” value was -8% and the Z score turned out to be 1.2.
For `Cc1ccccc1C(=O)N/C(=N/c1ccc(F)cc1)NCc1ccncc1`, in that order: -10% and 1.81.
For the compound `Cc1ccc(N(C)C(=O)C2=NN(C)C(=O)CC2)cc1`, the “% Inhibition” value was -10% and the Z score came to 1.26.
The matching figures for `CCOc1cc(Br)ccc1S(=O)(=O)N(CC)CC`: -6% and 0.83.
In the case of `CC(C)CCCNC(=O)Nc1cc2n(n1)CCN(C)C2=O`, the “% Inhibition” value is listed as -10% and the Z score amounted to 1.99.
Consider `CCOCC(=O)N1CCC[C@H](Oc2ccncc2)C1`, for which the “% Inhibition” value worked out at 6% and the Z score is recorded as -0.86.
The matching figures for `CNC(=O)[C@H](Nc1nc(C)nc2ncccc12)c1ccccc1`: -1% and 0.08.
As to `CN(Cc1nccn1C)C(=O)c1cc2ccccc2[nH]1`, the “% Inhibition” value is 41% and the Z score is reported as -5.32.
Consider `CCc1c(C)sc2c1CCN(CC(=O)Nc1cc(C(F)(F)F)ccc1Cl)[C@@H]2c1ccccc1`, for which the “% Inhibition” value is -11% and the Z score is recorded as 1.12.
With `O=S(=O)(c1ccc(F)c(Cl)c1)N1CCC[C@H](Cc2nc(C3CC3)no2)C1`, the “% Inhibition” value was found to be 19% and the Z score is listed as -2.47.
Regarding `COCC(=O)Nc1cc(C(=O)O)cc2nc(-c3cccnc3)n(C)c12`, the “% Inhibition” value is reported as -2% and the Z score was 0.19.
For `CCc1cnccc1-c1noc(C[C@H]2CCCCNC2=O)n1`, in that order: 6% and -1.18.

Broadly, the % Inhibition is the relative decrease from the control value, in per cent.

The record behind these values is ChEMBL document CHEMBL4888484, “Replenishing the malaria drug discovery pipeline: Screening and hit evaluation of the MMV Hit Generation Library 1 (HGL1) against asexual blood stage Plasmodium falciparum ,using a nano luciferase reporter read-out” (2022).
